# From publication PMC4336329 (PLoS ONE, 2015)
# The whole screen tested about 310,000 compounds, of which about 2,200 (0.71%) showed an effect of 50% or more. The effect is printed as a negative number. Some of the results follow.
# Biological target: human ether-à-go-go-related gene (hERG) potassium channel (human, UniProt Q12809)
# Test: primary screen, population patch clamp on CHO cells stably expressing hERG
# human ether-à-go-go-related gene (hERG) potassium channel, sequence (Q12809 whole entry, looked up): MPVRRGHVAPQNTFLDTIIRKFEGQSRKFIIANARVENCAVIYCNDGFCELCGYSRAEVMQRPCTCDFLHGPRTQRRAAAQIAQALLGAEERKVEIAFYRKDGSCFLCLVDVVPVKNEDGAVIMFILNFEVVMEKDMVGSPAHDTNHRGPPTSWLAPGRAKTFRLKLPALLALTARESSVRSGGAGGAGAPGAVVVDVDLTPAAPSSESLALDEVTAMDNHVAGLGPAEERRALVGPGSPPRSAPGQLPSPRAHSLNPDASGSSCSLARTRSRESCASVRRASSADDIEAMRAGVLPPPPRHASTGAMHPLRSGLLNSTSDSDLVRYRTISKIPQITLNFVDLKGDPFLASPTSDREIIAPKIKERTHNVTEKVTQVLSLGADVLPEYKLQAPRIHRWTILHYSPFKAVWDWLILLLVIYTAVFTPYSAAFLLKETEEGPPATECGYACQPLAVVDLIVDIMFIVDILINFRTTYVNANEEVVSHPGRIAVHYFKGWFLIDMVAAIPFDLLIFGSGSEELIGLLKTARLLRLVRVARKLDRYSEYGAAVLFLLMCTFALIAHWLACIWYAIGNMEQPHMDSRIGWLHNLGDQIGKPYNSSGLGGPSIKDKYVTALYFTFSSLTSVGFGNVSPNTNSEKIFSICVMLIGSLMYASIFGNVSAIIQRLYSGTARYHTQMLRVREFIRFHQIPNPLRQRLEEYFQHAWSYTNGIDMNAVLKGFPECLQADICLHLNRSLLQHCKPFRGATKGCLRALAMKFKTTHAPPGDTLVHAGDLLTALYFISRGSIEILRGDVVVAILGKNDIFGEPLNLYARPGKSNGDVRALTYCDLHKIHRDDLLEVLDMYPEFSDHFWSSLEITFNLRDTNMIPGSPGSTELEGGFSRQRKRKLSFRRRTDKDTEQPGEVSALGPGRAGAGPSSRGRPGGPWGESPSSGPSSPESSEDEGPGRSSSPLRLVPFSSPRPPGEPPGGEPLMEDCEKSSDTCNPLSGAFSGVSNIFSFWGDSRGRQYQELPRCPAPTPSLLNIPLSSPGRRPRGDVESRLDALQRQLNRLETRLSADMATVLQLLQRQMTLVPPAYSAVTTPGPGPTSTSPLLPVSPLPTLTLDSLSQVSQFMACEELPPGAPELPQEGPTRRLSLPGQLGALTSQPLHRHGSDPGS
row,Structure (SMILES),"hERG current change (%, negative = inhibition) at 1uM"
1,CCOC(=O)c1c(C)[nH]c(C)c1S(=O)(=O)N1CCN(c2ccc([N+](=O)[O-])cc2)CC1,1.42%
2,COc1ccc(CNCc2cc(C)c(OC)cc2C)c(OC)c1.O=C(O)C(=O)O,-35%
3,CC1(C)OC(C)(C)/C(=C/Nc2ccccc2)C1=O,10.6%
4,Cc1ccc(NC(Cc2cc(C)no2)c2ccccc2)cc1 (centres unmarked),-2.67%
5,COc1ccccc1N1CCN(CC(=O)N(CC(C)C)c2c(N)n(CC(C)C)c(=O)[nH]c2=O)CC1,0.707%
6,CNC(=S)N1N=C(c2ccc(OC)cc2)CC1c1ccc(N(C)C)cc1 (centres unmarked),0.367%
7,O=C(COC(=O)c1cc(-c2cccs2)nn1-c1ccccc1)Nc1cc([N+](=O)[O-])ccc1Cl,9.05%
8,O=c1cc(N2CCc3ccccc32)[nH]c(=O)n1-c1ccccc1,8.14%
9,O=C(c1ccc(-c2ccccc2)cc1)c1ccccc1C(=O)N1CCOCC1,-0.441%
10,O=C(Nc1ccccc1)N1CCC(C(=O)N2CCN(c3ccccc3F)CC2)CC1,1.91%
11,O=C(O)CCC(=O)Nc1ccc(N2CCOCC2)cc1,5.87%
12,Cc1ccc(C(=O)N2N=C(c3ccccc3)CC2(O)C(F)(F)F)o1 (centres unmarked),15.9%
13,Cc1cc(Br)ccc1NC(=O)CNC(=O)c1ccc(-n2cncn2)c([N+](=O)[O-])c1,-19.5%
14,COc1ccc(C(=O)NC(=S)NCc2cccnc2)cc1OC,-8.98%
15,CN1CCC(OC(=O)Cc2ccccc2)CC1.Cl,4.12%
16,COC(=O)N/N=C/c1c(C)cc(C)cc1C,10.5%
17,CCOc1ccc(N2C(=O)CC(Sc3nccc(C)n3)C2=O)cc1 (centres unmarked),1.36%
18,CCc1cccc(NS(=O)(=O)c2ccc3c(c2)NC(=O)CO3)c1,10.9%
19,Cc1ccc(N2C(=O)C3C4CCC(O4)C3C2=O)c(OC(F)F)c1 (centres unmarked),12.7%
20,O=c1c2c([nH]n1-c1ccccc1)CCCC2,10.8%
21,O=C(Nc1cccc2nsnc12)c1ccc2c(c1)OCO2,1.7%
22,Cc1cc(=O)[nH]c(N/N=C2/CCCC/C2=C\c2ccccc2)n1,6.37%
23,COc1ccc(NC(=O)C2CCN(C(=O)C3CC(=O)N(c4ccc(C)cc4)C3)CC2)c(OC)c1 (centres unmarked),0.847%

row,Structure (SMILES),"hERG current change (%, negative = inhibition) at 1uM"
1,CN(c1ccc(C(=O)NCCC2=CCCCC2)cc1)S(C)(=O)=O,12.3%
2,O=C(CN1CCN(CC(=O)Nc2ccccn2)CC1)Nc1ccccn1,-9.95%
3,COc1ccc(CCNC(=O)CC2Nc3ccccc3NC2=O)cc1 (centres unmarked),10.4%
4,CCn1c2c(c3cc(OCC(C)C)ccc31)CCCC2=O,13.3%
5,COc1ccc2c(c1)OC(O)(C(F)F)CC2=O (centres unmarked),16.4%
6,CCOc1cc(C(=O)NC2CCCCCCC2)cc(OCC)c1OCC,10.3%
7,COc1cc(S(=O)(=O)N2CCN(Cc3ccc4c(c3)OCO4)CC2)c(C)cc1C,3.61%
8,O=C(NCC1CCCO1)c1cc2ccccc2[nH]1 (centres unmarked),10.3%
9,Nc1cc(=O)[nH]n1C1CCCCC1,-0.227%
10,COc1ccc(C(=O)Nc2ccc(NC(C)=O)cc2)cc1S(=O)(=O)N1CCCCC1C (centres unmarked),23.2%
11,COc1ccc(N=C2SC(CC(=O)Nc3ccccc3OC)C(=O)N2Cc2ccco2)cc1 (centres unmarked),4.75%
12,CCN(CC)CCN1CNC(=S)N(c2ccccc2OC)C1,11.7%
13,C/C(=N/NC(=O)CNC(=O)c1cccnc1)c1cccc([N+](=O)[O-])c1,4.23%
14,CN(c1ccc(OC(=O)CN2C(=O)NC3(CCCC3)C2=O)cc1)S(=O)(=O)c1ccccc1,15.9%
15,O=C(Nc1ccccc1)c1cccc(N2C(=O)CCC2=O)c1,1.87%
16,Nc1ccccc1C(=O)NCc1ccc(F)cc1,28.6%
17,Cc1cc(OCC(=O)Nc2cc(C(C)(C)C)on2)ccc1[N+](=O)[O-],-3.14%
18,N/C(=N\OC(=O)/C=C/c1ccccc1)c1ccc(Br)cc1,7.48%
19,COc1ccc(/C=N/n2cnc3c([nH]c4ccc(Br)cc43)c2=O)cc1CN1CCOCC1,11.6%
20,O=C(Nc1nc2c(s1)CN(Cc1ccccc1)CC2)C1CCC1,3.08%
21,COc1cc(CC(=O)N(C)CC(=O)Nc2ccc(Cl)c(C(F)(F)F)c2)cc(OC)c1OC,4.37%
22,CCOC(=O)CCCSc1nnc(CCCCCN2C(=O)c3cccc4cccc(c34)C2=O)o1,6.5%
23,NC(=S)N/N=C1\c2ccccc2-c2c(C(=O)O)cccc21,13.2%

row,Structure (SMILES),"hERG current change (%, negative = inhibition) at 1uM"
1,CC(C)C(NC(=O)/C=C/c1ccc(F)cc1)C(C)C,13.2%
2,COc1ccc(CSc2n[nH]c(C)n2)cc1Br,15.4%
3,Cc1ccc(N)cc1NC(=O)CN1CCOCC1,12.9%
4,C=CCN=C1CC(C)(C)CC(=O)/C1=C(\O)c1ccccc1,0.308%
5,CCOc1ccc(-c2cc(CCCC(=O)N3CCN(c4ccc(OC)cc4)CC3)no2)cc1,11.2%
6,COc1ccc(C(=O)COc2ccc3ccc(=O)oc3c2)c(OC)c1,2.95%
7,O=S(=O)(Nc1ccc(O)c2ccccc12)c1ccc(F)cc1,21.6%
8,CC(C(=O)O)c1ccc(C(=O)c2ccccc2)s1 (centres unmarked),1.95%
9,CCCCC(=O)Nc1ccc2c3c(cccc13)CC2,8.78%
10,Cc1ccc(C(=O)Nc2cccc(-c3ccc(N4CCOCC4)nn3)c2)cc1[N+](=O)[O-],10.4%
11,CC(C)c1ccc2nc(SCC(=O)NCC3CCCO3)c(C#N)cc2c1 (centres unmarked),7.83%
12,CCN(CC)CCn1c(O)c(N=O)c2ccccc21,-1.01%
13,O=C(COC(=O)[C@@H]1CC(O)CN1S(=O)(=O)c1ccc2c(c1)OCCO2)NCc1ccc(F)cc1 (some centres unmarked),13.9%
14,CC1CC(C)CN(C(=O)CSCC(=O)O)C1 (centres unmarked),4.57%
15,CCOc1ccccc1C(=O)Nc1nn[nH]n1,9.18%
16,CCOC(=O)COc1nc(-c2ccc(C)cc2)cc(-c2ccco2)c1C#N,15.7%
17,COc1cc2ccc(=O)oc2c(O[C@@H]2O[C@H](CO)[C@@H](O)[C@H](O)[C@H]2O)c1O.O,4.52%
18,Brc1cc(Br)c2nc3c(cc2c1)CCC3,11.8%
19,CC(C)CCN(Cc1ccco1)S(=O)(=O)c1ccc(-c2ccc(=O)[nH]n2)s1,14.9%
20,COc1ccccc1-n1nc(C)cc1N,4.33%
21,COc1ccc(OC)c(CC(=O)NC(c2ccccc2)c2ccccc2)c1,7.84%
22,CC1(C)C/C(=N\O)C(C(O)c2cccc([N+](=O)[O-])c2)C(C)(C)N1 (centres unmarked),17.9%
23,COc1cccc(-c2cc(C(=O)N/N=C/c3ccc(OC)c(COC(C)=O)c3)c3ccccc3n2)c1,10.4%

row,Structure (SMILES),"hERG current change (%, negative = inhibition) at 1uM"
1,O=C(COC(=O)/C=C/c1cc(Br)ccc1F)Nc1ccc2[nH]c(=O)[nH]c2c1,8.58%
2,Cc1cccnc1NC(=O)CCCc1c[nH]c2ccccc12,9.95%
3,O=c1cc(N2CCCCC2)c(-c2ccccc2)n[nH]1,18.5%
4,Cc1ccc(S(=O)(=O)Nc2cccc(C(=O)NCc3ccc(S(N)(=O)=O)cc3)c2)cc1,12.7%
5,N#Cc1ccccc1NC(=O)COC(=O)COc1ccccc1[N+](=O)[O-],12.8%
6,Cc1ccc(S(=O)(=O)Cc2ccc(C(=O)N3CCN(c4cccc(C)c4C)CC3)o2)cc1,16.2%
7,Cc1noc(C)c1COc1ccccc1C(=O)N(C)CC(=O)Nc1cccc(F)c1,0.926%
8,CCOC(=O)c1cnn(Cc2cccc(Cl)c2)c1C,4.98%
9,CN(CCCn1c(=S)[nH]c2ncccc2c1=O)Cc1ccccc1,6.4%
10,Cc1cc(OC(=O)CCNC(=O)OC(C)(C)C)c2c3c(c(=O)oc2c1)CCC3,0.427%
11,O=c1c2nncn2c2cccnc2n1CCNc1ncc(C(F)(F)F)cc1Cl,-15.1%
12,Cc1ccc(-c2cc(C(=O)Nc3cc(C)on3)c3ccccc3n2)cc1,12.2%
13,O=C(NCC(=O)N1CCN(S(=O)(=O)/C=C/c2ccccc2)CC1)c1ccc(Cl)cc1,1.55%
14,COc1ccc(N2CCN(c3nc4ccc(C)cn4c(=O)c3C=O)CC2)cc1,3.89%
15,CC(=O)Oc1cccc(C(=O)Nc2ccc(NC(=O)c3cccs3)cc2)c1,-10.3%
16,COc1ccc(C(=O)Nc2ccc3[nH]ccc3c2)cc1,14%
17,COc1ccc(C(CCNCc2ccc(N(C)C)cc2)C(C)C)cc1 (centres unmarked),2.49%
18,COc1ccc(NC(=O)C2CCN(c3ncnc4c3nc3n4CCCCC3)CC2)cc1Cl,-9.47%
19,COc1ccc(S(=O)(=O)NCc2ccco2)cc1-c1nnc2c3ccccc3c(C)nn12,-6.26%
20,N#Cc1cn(-c2ccccc2)nc1-c1ccco1,7.66%
